Data reported in the supplement of paper PMC4967469.
IC50 is the fitted dose that halves viability relative to control wells, and lower means more sensitive; fits outside the tested doses are given as limits. The AUC spans the tested range (256-fold, ending at the top dose) of the same fit; the more sensitive the line, the further below 1. For some of these results: An inferred top dose comes from the curve model; the source does not state it. For some of these results: An entry number marks a drug with two screens in the source, which often give different values.

Experiments:
Test in all cases: Viability of human cancer cell lines after 72 h of drug (GDSC screen)
[1] = compound: CCCC(=O)OCc1ccc(OC(=O)/C=C(C)/C=C/C=C(C)/C=C/C2=C(C)CCCC2(C)C)cc1 [VNLG/124]; conditions: top dose 5.12 µM; top dose inferred
Experimental: (§1)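 Human cancer cell lines in 384-well plates, medium with 10% serum, drug for 72 h over a 256-fold dose range (nine 2-fold or five 4-fold steps up to the top dose). Adherent lines were fixed and stained with the nucleic acid dye Syto60, suspension lines read with resazurin; signal relative to control wells, capped at 0 and 100%. One two-parameter sigmoid per drug and line, fitted in a mixed model over all curves with the slope shared within a line.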

[2] = compound: CN(NC(=O)CC(=O)NN(C)C(=S)c1ccccc1)C(=S)c1ccccc1 [Elesclomol]; conditions: top dose 0.2 µM; top dose inferred
Experimental: as §1

[3] = compound: Cc1c(N)nc([C@H](CC(N)=O)NC[C@H](N)C(N)=O)nc1C(=O)N[C@H](C(=O)N[C@H](C)[C@@H](O)[C@H](C)C(=O)N[C@H](C(=O)NCCc1nc(-c2nc(C(=O)NCCC[S+](C)C)cs2)cs1)[C@@H](C)O)[C@@H](OC1OC(CO)C(O)C(O)C1OC1OC(CO)C(O)C(OC(N)=O)C1O)c1cnc[nH]1 [Bleomycin]
Experimental: as §1

[4] = compound: O=S(=O)(O)c1ccc2cc(N=Nc3cc(S(=O)(=O)O)c4cccnc4c3O)ccc2c1 [NSC-87877]; conditions: top dose 16 µM; top dose inferred
Experimental: as §1

[5] = compound: Cc1ccc(NC(=O)c2ccc(CN3CCN(C)CC3)cc2)cc1Nc1nc(-c2cccnc2)cs1 [Masitinib]; conditions: top dose 20 µM
Experimental: as §1

[6] = compound: O=C(/C=C/c1ccc(CN(CCO)CCc2c[nH]c3ccccc23)cc1)NO [LAQ824]; conditions: top dose 1.024 µM; top dose inferred
Experimental: as §1

[7] = compound: O=C(Nc1ccc(OC(F)(F)F)cc1)c1sccc1NCc1ccnc2ccccc12 [OSI-930]; conditions: top dose 10.24 µM
Experimental: as §1

[8] = compound: O=C(Nc1cccc(Nc2ncc(Br)c(NCCc3cnc[nH]3)n2)c1)N1CCCC1 [BX-912]; conditions: top dose 10.24 µM; top dose inferred
Experimental: as §1

[9] = compound: CC/C(=C(\c1ccccc1)c1ccc(OCCN(C)C)cc1)c1ccccc1 [Tamoxifen]; conditions: top dose 5 µM
Experimental: as §1

[10] = top dose 50 µM, screen: GDSC drug entry 1378, top dose inferred
[11] = top dose 64 µM, screen: GDSC drug entry 190

Cell Line | AUC [1] | IC50 [1] [µM] | AUC [2] | IC50 [2] [µM] | AUC [3, 10] | IC50 [3, 10] [µM] | AUC [3, 11] | IC50 [3, 11] [µM] | AUC [4] | IC50 [4] [µM] | AUC [5] | IC50 [5] [µM] | AUC [6] | IC50 [6] [µM] | AUC [7] | IC50 [7] [µM] | AUC [8] | IC50 [8] [µM] | AUC [9] | IC50 [9] [µM]
HH (T-cell leukaemia, suspension) | 0.624 | 0.786 | 0.743 | 0.0798 | 0.843 | > 50 | 0.464 | 3.09 | 0.977 | > 16 | 0.826 | 17.8 | 0.236 | 0.00828 | 0.85 | > 10.2 | 0.686 | 2.54 | 0.88 | > 5
HuCCT1 (biliary tract, adherent) | 0.98 | > 5.12 | 0.395 | 0.00621 | 0.505 | 3.22 | 0.643 | 10.5 | 0.983 | > 16 | 0.867 | > 20 | 0.373 | 0.0274 | 0.961 | > 10.2 | 0.907 | > 10.2 | 0.918 | > 5
G-361 (melanoma, adherent) | 0.98 | > 5.12 | 0.442 | 0.00876 | 0.704 | 11.4 | 0.115 | < 0.25 | 0.988 | > 16 | 0.866 | 16.7 | 0.228 | 0.0108 | 0.951 | > 10.2 | 0.934 | > 10.2 | 0.979 | > 5
HOP-92 (large cell lung carcinoma, adherent) | 0.98 | > 5.12 | 0.491 | 0.0117 | 0.495 | 3.02 | 0.599 | 7.82 | 0.984 | > 16 | 0.98 | > 20 | 0.401 | 0.0326 | 0.953 | > 10.2 | 0.97 | > 10.2 | 0.962 | > 5
KON (head and neck, adherent) | 0.98 | > 5.12 | 0.534 | 0.0155 | 0.522 | 3.59 | 0.109 | < 0.25 | 0.81 | 8.2 | 0.977 | > 20 | 0.395 | 0.0333 | 0.981 | > 10.2 | 0.966 | > 10.2 | 0.928 | > 5
NCI-H1703 (lung adenocarcinoma, adherent) | 0.979 | > 5.12 | 0.373 | 0.00516 | 0.513 | 3.41 | 0.158 | 0.268 | 0.96 | > 16 | 0.659 | 3.82 | 0.649 | 0.182 | 0.685 | 2.38 | 0.677 | 2.24 | 0.965 | > 5
COLO-678 (large intestine, semi-adherent) | 0.985 | > 5.12 | 0.693 | 0.0515 | 0.682 | 11.8 | 0.77 | 31.5 | 0.934 | > 16 | 0.984 | > 20 | 0.804 | 0.699 | 0.985 | > 10.2 | 0.981 | > 10.2 | 0.982 | > 5
PE/CA-PJ15 (head and neck, adherent) | 0.98 | > 5.12 | 0.746 | 0.0677 | 0.247 | 0.544 | 0.86 | 60.6 | 0.986 | > 16 | 0.977 | > 20 | 0.527 | 0.0761 | 0.982 | > 10.2 | 0.957 | > 10.2 | 0.979 | > 5
CAL-39 (cervix, adherent) | 0.98 | > 5.12 | 0.512 | 0.0135 | 0.547 | 4.23 | 0.03 | < 0.25 | 0.976 | > 16 | 0.916 | > 20 | 0.309 | 0.0183 | 0.959 | > 10.2 | 0.973 | > 10.2 | 0.98 | > 5
EFM-19 (breast, adherent) | 0.973 | > 5.12 | 0.702 | 0.0631 | 0.882 | > 50 | 0.139 | < 0.25 | 0.973 | > 16 | 0.89 | > 20 | 0.406 | 0.031 | 0.976 | > 10.2 | 0.889 | > 10.2 | 0.93 | > 5
LNZTA3WT4 (glioma, adherent) | 0.978 | > 5.12 | 0.56 | 0.0182 | 0.713 | 12.3 | 0.794 | 28.8 | 0.978 | > 16 | 0.974 | > 20 | 0.761 | 0.356 | 0.966 | > 10.2 | 0.967 | > 10.2 | 0.951 | > 5
Ramos-2G6-4C10 (Burkitt lymphoma, suspension) | 0.985 | > 5.12 | 0.403 | 0.00705 | 0.989 | > 50 | 0.657 | 10.1 | 0.983 | > 16 | 0.862 | 13.2 | 0.354 | 0.0269 | 0.941 | > 10.2 | 0.711 | 2.27 | 0.977 | > 5
NCI-H1838 (lung adenocarcinoma, adherent) | 0.986 | > 5.12 | 0.786 | 0.107 | 0.91 | > 50 | 0.736 | 22.3 | 0.981 | > 16 | 0.913 | > 20 | 0.957 | > 1.02 | 0.976 | > 10.2 | 0.972 | > 10.2 | 0.985 | > 5
EBC-1 (lung squamous cell carcinoma, adherent) | 0.978 | > 5.12 | 0.644 | 0.033 | 0.776 | 22.5 | 0.439 | 2.67 | 0.976 | > 16 | 0.898 | > 20 | 0.306 | 0.0169 | 0.952 | > 10.2 | 0.886 | > 10.2 | 0.913 | > 5
PANC-03-27 (pancreas, adherent) | 0.988 | > 5.12 | 0.672 | 0.0363 | 0.222 | 0.515 | 0.206 | 0.586 | 0.987 | > 16 | 0.884 | 19.2 | 0.595 | 0.114 | 0.944 | > 10.2 | 0.946 | > 10.2 | 0.987 | > 5
EW-3 (Ewing sarcoma, adherent) | 0.95 | > 5.12 | 0.727 | 0.0613 | 0.522 | 3.62 | 0.724 | 19.2 | 0.98 | > 16 | 0.902 | > 20 | 0.669 | 0.203 | 0.984 | > 10.2 | 0.865 | > 10.2 | 0.966 | > 5
SiHa (cervix, adherent) | 0.983 | > 5.12 | 0.655 | 0.0361 | 0.822 | 35.4 | 0.983 | > 64 | 0.956 | > 16 | 0.983 | > 20 | 0.927 | > 1.02 | 0.979 | > 10.2 | 0.974 | > 10.2 | 0.979 | > 5
HA7-RCC (kidney, adherent) | 0.982 | > 5.12 | 0.388 | 0.00593 | 0.418 | 1.82 | 0.152 | 0.29 | 0.983 | > 16 | 0.904 | > 20 | 0.345 | 0.0226 | 0.982 | > 10.2 | 0.9 | > 10.2 | 0.932 | > 5
L-1236 (Hodgkin lymphoma, suspension) | 0.982 | > 5.12 | 0.983 | > 0.2 | 0.753 | 14.4 | 0.454 | 3.05 | 0.985 | > 16 | 0.957 | > 20 | 0.387 | 0.033 | 0.989 | > 10.2 | 0.964 | > 10.2 | 0.979 | > 5
NCI-H69 (small cell lung carcinoma, suspension) | 0.985 | > 5.12 | 0.919 | > 0.2 | 0.537 | 4 | 0.827 | 45.2 | 0.983 | > 16 | 0.926 | > 20 | 0.5 | 0.0641 | 0.978 | > 10.2 | 0.789 | 5.1 | 0.952 | > 5
ECC10 (stomach, suspension) | 0.961 | > 5.12 | 0.496 | 0.0122 | 0.877 | > 50 | 0.523 | 4.62 | 0.97 | > 16 | 0.868 | 19.6 | 0.334 | 0.0216 | 0.968 | > 10.2 | 0.78 | 4.41 | 0.956 | > 5
SU-DHL-4 (B-cell lymphoma, suspension) | 0.997 | > 5.12 | 0.997 | > 0.2 | 0.995 | > 50 | 0.79 | 20.4 | 0.997 | > 16 | 0.916 | 14.3 | 0.451 | 0.0488 | 0.996 | > 10.2 | 0.828 | 4.07 | 0.997 | > 5
HCC-44 (lung adenocarcinoma, adherent) | 0.946 | > 5.12 | 0.605 | 0.0241 | 0.081 | < 0.195 | 0.198 | 0.523 | 0.986 | > 16 | 0.868 | 17.5 | 0.303 | 0.0182 | 0.967 | > 10.2 | 0.887 | > 10.2 | 0.98 | > 5
